Assay results published in PubChem BioAssay AID686979 (National Center for Advancing Translational Sciences (NCATS), 2013).
The whole screen tested about 420,000 compounds, of which about 50,000 (12%) were called active. Inconclusive means that the source gave no clear call. Such entries were picked first, then a sample of the others. The call rests on the fitted dose curve; in most records, active means well fitted inhibition curve with a large enough effect; inconclusive means small, poorly fitted or top-dose-only effect; inactive means flat fitted curve, though single readings scatter. Potencies of inconclusive entries are left out as doubtful fits.

Experiment: qHTS for Inhibitors of human tyrosyl-DNA phosphodiesterase 1 (TDP1): qHTS in cells in presence of CPT; further: nearly all actives have a fitted effect of over 55% in size
Details: chicken DT40 Tdp1-/-;hTDP1 cells + 20 nM CPT, ATP luminescence, 48 h; activity change, negative = growth inhibition: at 46.2 µM (top of the series) unless noted
Outline: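 Cell growth measured by CellTiter-Glo luminescence after a minimum 48 h, 37 C compound exposure with 20 nM CPT in Tdp1-knockout DT40 cells stably expressing hTDP1, seeded 400/well; qHTS titration format.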
On the % scale 0 is the no-effect control and ±100 the full control effect; potency means the concentration at half of the fitted maximal effect; tags describe the fitted curve by direction and shape.

Question: Which “activity change, negative = growth inhibition” value does the source give for `CC(C)(C)NC(=O)NCc1ccco1` here?
Answer: inactive: -26.1%

Question: For `O=C(Nc1ncn[nH]1)c1cc(S(=O)(=O)Nc2cccc(C(F)(F)F)c2)ccc1Cl`, which “activity change, negative = growth inhibition” value is on record?
Answer: inactive: 1.28%

Question: For `COc1cccc(NC(=O)Nc2ccc3c(c2)N(C)C(=O)c2ccccc2S3)c1`, which Potency is on record?
Answer: inconclusive [inhibitor, single point]

Question: With `COc1ccc(C2C(C(C)=O)=C(O)C(=O)N2C)c(OC)c1` (stereo not drawn) as the compound, how does the “activity change, negative = growth inhibition” value read?
Answer: inactive: -1.36%

Question: For `CC(NC(=O)CN1CCN(c2ncccn2)CC1)c1ccc(F)cc1` (stereo not drawn), which “activity change, negative = growth inhibition” value is on record?
Answer: inactive: -14.6%

Question: With `COc1ccc(-c2c(C)c3ccc(O)c(CN4CCOCC4)c3oc2=O)cc1OC` as the compound, how does the Potency read?
Answer: inconclusive [inhibitor, single point]

Question: Which Potency does the source give for `COc1cc(S(=O)(=O)N(Cc2ccc(C)cc2)Cc2ccco2)ccc1-n1cnnn1` here?
Answer: inconclusive [inhibitor, single point]

Question: Which activity change, negative = growth inhibition does the source give for `Cc1cc(C)cc(NC(=S)N2CCN(Cc3ccccc3)CC2)c1` here?
Answer: inconclusive: -31.5% [inhibitor]

Question: With `Cn1c(=O)c2c(ncn2CC(COCc2ccccc2Cl)OCc2ccccc2Cl)n(C)c1=O` (stereo not drawn) as the compound, how does the Potency read?
Answer: active: 25.9 µM

Question: Which “activity change, negative = growth inhibition” value does the source give for `Cc1ccc(S(=O)(=O)NC(=O)c2cc(C)n(-c3ccc(N(C)C)cc3)c2C)cc1` here?
Answer: inactive: 4.85%

Question: For `O=C(CSc1nccn1Cc1ccc(F)cc1)NCc1ccco1`, which “activity change, negative = growth inhibition” value is on record?
Answer: inactive: -12.7%

Question: For `Cc1ccc(C)c(NC(=O)C(CC(C)C)N2Cc3ccccc3C2=O)c1` (stereo not drawn), which Potency is on record?
Answer: inconclusive [inhibitor, partial curve]

Question: Which “activity change, negative = growth inhibition” value does the source give for `O=C(Cc1ccsc1)OCC(=O)c1ccccc1` here?
Answer: inactive: 2.54%

Question: For `Cc1cc(C)c2c(c1)c(C)cc1nnc(SCC(=O)c3ccccc3)n12`, which Potency is on record?
Answer: inconclusive [inhibitor, single point]

Question: For `CCCN1Cc2cccc(C(=O)Nc3cc(Cl)ccc3C)c2C1=O`, which Potency is on record?
Answer: inconclusive [inhibitor, single point]

Question: With `CCN(CC(O)Cn1c2ccccc2c2ccccc21)S(=O)(=O)c1ccc(C)cc1` (stereo not drawn) as the compound, how does the Potency read?
Answer: active: 29.1 µM

Question: Which Potency does the source give for `c1ccc(Nc2nc3ccccc3n3nnnc23)cc1` here?
Answer: inconclusive [inhibitor, single point]

Question: For `CC(=O)N1CCC(C(=O)Nc2ccc(S(=O)(=O)N3CCC(C)CC3)cc2)CC1`, which activity change, negative = growth inhibition is on record?
Answer: inconclusive: -30% [inhibitor]

Question: Which “activity change, negative = growth inhibition” value does the source give for `Cc1ccnc2ccc(F)cc12` here?
Answer: inactive: 1.18%

Question: For `O=c1cc(CN2CCCCCCC2)c2ccccc2o1`, which Potency is on record?
Answer: inconclusive [inhibitor, single point]

Question: Which Potency does the source give for `CCCS(=O)(=O)c1cnc(C2COc3ccccc3O2)nc1N` (stereo not drawn) here?
Answer: inconclusive [inhibitor, single point]

Question: For `COc1ccccc1OCCn1c(SCC(=O)O)nc2ccccc21`, which “activity change, negative = growth inhibition” value is on record?
Answer: inactive: -24.3%

Question: For `CCCn1c(SCC(=O)NCc2ccc3c(c2)OCO3)n[nH]c1=O`, which “activity change, negative = growth inhibition” value is on record?
Answer: inactive: 1.47%
